From PubChem BioAssay (NCI) come the findings set out here.

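How tested: cells in 96-well plates exposed to compound for 48 hours at five concentrations. GI50 is the concentration that inhibits growth by half.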 The source holds more than one record for some entries. They are shown here; other results are not. The source may hold further records. For part of these data: A record mostly stands for its own series of concentrations, which the source does not state; a value can be the end of its range.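 Definition used: TGI = concentration required for complete inhibition of growth.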 For part of these data: The records of an entry are repeated measurements across runs, samples, wells, individuals or studies. Marks in square brackets tell the records apart. A, B and so on number the origins entry by entry.

Some test systems named below: CCRF-CEM leukemia; COLO 205 colon; HCC-2998 colon; HL-60(TB) leukemia; K-562 leukemia; KM12 colon; MCF7 breast; MOLT-4 leukemia; RPMI-8226 leukemia; SK-MEL-2 melanoma; SW-620 colon; T-47D breast.
Assay in all cases: growth of human tumour cells (NCI), 48 h

Turning to `CCCCCCCCCCCC1CCCC(C)N1` (configuration not stated), the TGI in the assay on CCRF-CEM leukemia is 5.7 µM [sample A] and 95.8 µM [sample B]; in the assay with COLO 205 colon, 2.93 µM [sample A] and 106 µM [sample B]; with HCC-2998 colon, 4.3 µM [sample A] and 114 µM [sample B]; in the assay on HL-60(TB) leukemia, 3.02 µM [sample A] and 32.6 µM [sample B]; in the assay with K-562 leukemia, 7.64 µM [sample A] and 84.4 µM [sample B]; with KM12 colon it was 8.63 µM [sample A] and 91.5 µM [sample B]. For the same molecule, the TGI in the assay on MCF7 breast was 12.4 µM [sample A] and 126 µM [sample B]; with MOLT-4 leukemia, 4.73 µM [sample A] and 55.7 µM [sample B]; in the assay with RPMI-8226 leukemia, 4.82 µM [sample A] and 74.8 µM [sample B]; in the assay with SK-MEL-2 melanoma it was 14.9 µM [sample A] and 152 µM [sample B]; with SW-620 colon, 9.25 µM [sample A] and 131 µM [sample B].
On to `NC(=O)c1ccc2nc(-c3ccc(Oc4ccc(Cl)cc4)cc3)[nH]c2c1`, for which, in the assay on T-47D breast, the GI50 was 4.49 µM [1 test] and > 75 µM [mean of 2 tests].
